The other results are listed elsewhere or left out. At the low end of the ranking the order means little.

Consider 74 sequences from paper PMC5892938.

The target of the assay is GST-SBP-SLBP (stem-loop binding protein) (UniProt Q14493). Put plainly: targeted RNA Bind-n-Seq.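 Note: DESeq read counts versus GST-SBP nonspecific binding control pulldown.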 To be noted: RBNS binding buffer: 25 mM Tris pH 7.5, 150 mM KCl, 3 mM MgCl2, 0.1% Tween, 0.5 mg/mL BSA, 1 mM DTT; 27 nM protein, 750 pM RNA pool; temperature not stated; high values mean tight binding.
As for “GGUCACGUCUCAAUCAACUCAACUCCCAGGGAAAGCCCUGGUAUAUUCAACAGCUCGCAGUCAAG”, the binding signal (log2 fold change) was -0.289. The value for “GGUCACGUCUCAAUCAACUCAAUGGAGGGGGGGAAAACCCCUUUACCCUCAUAAUCAACAGCUCGCAGUCAAG” was 0.129.

Take “GGUCACGUCUCAAUCAACUCAUUUCCAGGAGUUUCCUCCUGUUAUCUCAACAGCUCGCAGUCAAG”: the binding signal (log2 fold change) is -0.0243.

On to “GGUCACGUCUCAAUCAACUCAUCCUCAGGAGUUUGCUCCUGCUUUCUCAACAGCUCGCAGUCAAG”, for which the binding signal (log2 fold change) was 0.0403.

As for “GGUCACGUCUCAAUCAACUCAAUUCCAGGAGUUUACUCCUGCAUUUUCAACAGCUCGCAGUCAAG”, the binding signal (log2 fold change) was -0.0361. On to “GGUCACGUCUCAAUCAACUCUAUUUCAGGAGUUUACUCCUGUAUAUUCAACAGCUCGCAGUCAAG”, for which the binding signal (log2 fold change) is -0.0116. Consider “GGUCACGUCUCAAUCAACUCUCUAGAGGGGGGGAAAACCCCUUUACCCUCCGUUUCAACAGCUCGCAGUCAAG”, for which the binding signal (log2 fold change) is -0.267. As to “GGUCACGUCUCAAUCAACUCAAACGAGGGGGGGAAAACCCCUUUGCCCUCAAUCUCAACAGCUCGCAGUCAAG”, the binding signal (log2 fold change) was -0.247. With “GGUCACGUCUCAAUCAACUCUUCCCCAGGAGUUUCCUCCUGCUAUUUCAACAGCUCGCAGUCAAG”, the binding signal (log2 fold change) worked out at 0.139. As for “GGUCACGUCUCAAUCAACUCUAUUCCCAGGGAAAUCCCUGGUAAAUUCAACAGCUCGCAGUCAAG”, the figure is -0.0186. Regarding “GGUCACGUCUCAAUCAACUCUUUCUCAGGAGUUUCCUCCUGUUUAUUCAACAGCUCGCAGUCAAG”, the binding signal (log2 fold change) was -0.0336.

As to “GGUCACGUCUCAAUCAACUCAAAAGAGGGGGGGAAAACCCCUUUACCCUCCGCAUCAACAGCUCGCAGUCAAG”, the binding signal (log2 fold change) is -0.163. As to “GGUCACGUCUCAAUCAACUCUACUCCAGGAGUUUUCUCCUGCAUACUCAACAGCUCGCAGUCAAG”, the binding signal (log2 fold change) was -0.142. The value for “GGUCACGUCUCAAUCAACUCUUCCUCCAGGGAAAUCCCUGGUUAACUCAACAGCUCGCAGUCAAG” was -0.132; that for “GGUCACGUCUCAAUCAACUCAUCCUCAGGAGUUUUCUCCUGUUUUCUCAACAGCUCGCAGUCAAG” was 0.197; that for “GGUCACGUCUCAAUCAACUCAUCCUCCAGGGAAAGCCCUGGCAAUCUCAACAGCUCGCAGUCAAG” was 0.184.

As to “GGUCACGUCUCAAUCAACUCUAUCGCAGGAGUUUCCUCCUGGUAUUUCAACAGCUCGCAGUCAAG”, the binding signal (log2 fold change) is -0.201. In the case of “GGUCACGUCUCAAUCAACUCAUCUCCAGGAGUUUCCUCCUGUAAUCUCAACAGCUCGCAGUCAAG”, the binding signal (log2 fold change) stood at 0.137. The value for “GGUCACGUCUCAAUCAACUCUAUCCCCAGGGAAAACCCUGGUUAUUUCAACAGCUCGCAGUCAAG” was 0.142; that for “GGUCACGUCUCAAUCAACUCAUUCUCCAGGGAAACCCCUGGUUUUUUCAACAGCUCGCAGUCAAG” was -0.0819; that for “GGUCACGUCUCAAUCAACUCAUUCUCCAGGGAAACCCCUGGCUUAUUCAACAGCUCGCAGUCAAG” was 0.273. For “GGUCACGUCUCAAUCAACUCUUCGUCAGGAGUUUCCUCCUGUAUUCUCAACAGCUCGCAGUCAAG”, the binding signal (log2 fold change) stood at 0.18. “GGUCACGUCUCAAUCAACUCUUCCUCCAGGGAAAACCCUGGCAAUCUCAACAGCUCGCAGUCAAG”: the binding signal (log2 fold change) is -0.249. Regarding “GGUCACGUCUCAAUCAACUCUACUUCCAGGGAAAUCCCUGGUAAAUUCAACAGCUCGCAGUCAAG”, the binding signal (log2 fold change) was -0.359. On to “GGUCACGUCUCAAUCAACUCAGAAGAGGGGGGGAAAACCCCUUUACCCUCACAAUCAACAGCUCGCAGUCAAG”, for which the binding signal (log2 fold change) came to 0.0361. For “GGUCACGUCUCAAUCAACUCAUCGUCCAGGGAAAUCCCUGGUAUAUUCAACAGCUCGCAGUCAAG”, the binding signal (log2 fold change) is -0.145. Regarding “GGUCACGUCUCAAUCAACUCUUCUCCAGGAGUUUUCUCCUGUUAUUUCAACAGCUCGCAGUCAAG”, the binding signal (log2 fold change) is -0.0978. The value for “GGUCACGUCUCAAUCAACUCUCUCGAGGGGGGGAAAACCCCUUUGCCCUCACUAUCAACAGCUCGCAGUCAAG” was -0.336.

With “GGUCACGUCUCAAUCAACUCAUUCUCAGGAGUUUCCUCCUGCAUUUUCAACAGCUCGCAGUCAAG”, the binding signal (log2 fold change) turned out to be 0.0134.

For “GGUCACGUCUCAAUCAACUCUCAAGAGGGGGGGAAAACCCCUUUGCCCUCAAUAUCAACAGCUCGCAGUCAAG”, the binding signal (log2 fold change) is -0.445. As for “GGUCACGUCUCAAUCAACUCAUCCUCAGGAGUUUGCUCCUGUAUACUCAACAGCUCGCAGUCAAG”, the binding signal (log2 fold change) is -0.167. In the case of “GGUCACGUCUCAAUCAACUCUUUAGAGGGGGGGAAAACCCCUUUGCCCUCCACUUCAACAGCUCGCAGUCAAG”, the binding signal (log2 fold change) is -0.0291. “GGUCACGUCUCAAUCAACUCAUCUCCCAGGGAAAACCCUGGUAUUUUCAACAGCUCGCAGUCAAG”: the binding signal (log2 fold change) amounted to 0.16. As for “GGUCACGUCUCAAUCAACUCAUCGCCCAGGGAAAUCCCUGGUUAUUUCAACAGCUCGCAGUCAAG”, the binding signal (log2 fold change) came out at 0.101. As for “GGUCACGUCUCAAUCAACUCUUCUCCAGGAGUUUCCUCCUGUAUUUUCAACAGCUCGCAGUCAAG”, the binding signal (log2 fold change) came to 0.219.

For “GGUCACGUCUCAAUCAACUCUUCAGAGGGGGGGAAAACCCCUUUGCCCUCAAUAUCAACAGCUCGCAGUCAAG”, the binding signal (log2 fold change) was 0.255. As for “GGUCACGUCUCAAUCAACUCAUUUCCAGGAGUUUGCUCCUGCUUUUUCAACAGCUCGCAGUCAAG”, the binding signal (log2 fold change) turned out to be 0.0326.

Regarding “GGUCACGUCUCAAUCAACUCUUUCUCAGGAGUUUACUCCUGUUAUCUCAACAGCUCGCAGUCAAG”, the binding signal (log2 fold change) came to 0.158. In the case of “GGUCACGUCUCAAUCAACUCUAUCCCAGGAGUUUUCUCCUGCUAUCUCAACAGCUCGCAGUCAAG”, the binding signal (log2 fold change) stood at 0.0911. Take “GGUCACGUCUCAAUCAACUCUUCUCCAGGAGUUUUCUCCUGCAUUUUCAACAGCUCGCAGUCAAG”: the binding signal (log2 fold change) is -0.0804. As to “GGUCACGUCUCAAUCAACUCUACAGAGGGGGGGAAAACCCCUUUACCCUCAUUAUCAACAGCUCGCAGUCAAG”, the binding signal (log2 fold change) is 0.0252. Consider “GGUCACGUCUCAAUCAACUCAUUUUCAGGAGUUUGCUCCUGCAUAUUCAACAGCUCGCAGUCAAG”, for which the binding signal (log2 fold change) amounted to 0.028. Turning to “GGUCACGUCUCAAUCAACUCAUUUCCAGGAGUUUACUCCUGUUUAGUCAACAGCUCGCAGUCAAG”, the binding signal (log2 fold change) is -0.0751.

For the sequence “GGUCACGUCUCAAUCAACUCAGUCCCCAGGGAAAACCCUGGUUUUUUCAACAGCUCGCAGUCAAG”, the binding signal (log2 fold change) stood at 0.518. The value for “GGUCACGUCUCAAUCAACUCUUCUCCAGGAGUUUACUCCUGCAAUUUCAACAGCUCGCAGUCAAG” was -0.0312; that for “GGUCACGUCUCAAUCAACUCAUCCCCCAGGGAAAACCCUGGCUUACUCAACAGCUCGCAGUCAAG” was 0.149. For “GGUCACGUCUCAAUCAACUCAUUCUCCAGGGAAAUCCCUGGCUAACUCAACAGCUCGCAGUCAAG”, the binding signal (log2 fold change) was -0.115. The value for “GGUCACGUCUCAAUCAACUCUUUCUCCAGGGAAAUCCCUGGUUAUCUCAACAGCUCGCAGUCAAG” was 0.0175; that for “GGUCACGUCUCAAUCAACUCAGUCCCAGGAGUUUUCUCCUGCAAAUUCAACAGCUCGCAGUCAAG” was 0.0718; that for “GGUCACGUCUCAAUCAACUCUUUUCCCAGGGAAACCCCUGGCAAUUUCAACAGCUCGCAGUCAAG” was 0.154. Take “GGUCACGUCUCAAUCAACUCUCCCGAGGGGGGGAAAACCCCUUUACCCUCAAAUUCAACAGCUCGCAGUCAAG”: the binding signal (log2 fold change) is -0.142.

For “GGUCACGUCUCAAUCAACUCCUAAGAGGGGGGGAAAACCCCUUUACCCUCAAUGUCAACAGCUCGCAGUCAAG”, the binding signal (log2 fold change) turned out to be 0.0263. For “GGUCACGUCUCAAUCAACUCAUUCUCAGGAGUUUACUCCUGUAAUCUCAACAGCUCGCAGUCAAG”, the binding signal (log2 fold change) came to 0.0729.

Consider “GGUCACGUCUCAAUCAACUCAUCGUCCAGGGAAACCCCUGGCUUAUUCAACAGCUCGCAGUCAAG”, for which the binding signal (log2 fold change) is -0.0345. With “GGUCACGUCUCAAUCAACUCAAGUCCAGGAGUUUUCUCCUGUUUUCUCAACAGCUCGCAGUCAAG”, the binding signal (log2 fold change) was -0.0758. Turning to “GGUCACGUCUCAAUCAACUCAUUCUCCAGGGAAAACCCUGGCUAAUUCAACAGCUCGCAGUCAAG”, the binding signal (log2 fold change) was -0.0762. In the case of “GGUCACGUCUCAAUCAACUCAUUUUCAGGAGUUUCCUCCUGUAUUUUCAACAGCUCGCAGUCAAG”, the binding signal (log2 fold change) is -0.0899. For the sequence “GGUCACGUCUCAAUCAACUCAUUUUCCAGGGAAAACCCUGGCUUACUCAACAGCUCGCAGUCAAG”, the binding signal (log2 fold change) was found to be 0.1. As for “GGUCACGUCUCAAUCAACUCUAUAGAGGGGGGGAAAACCCCUUUGCCCUCACACUCAACAGCUCGCAGUCAAG”, the figure is -0.212.

On to “GGUCACGUCUCAAUCAACUCAAUUCCAGGAGUUUUCUCCUGCAUUUUCAACAGCUCGCAGUCAAG”, for which the binding signal (log2 fold change) turned out to be 0.0141.

Turning to “GGUCACGUCUCAAUCAACUCAUCUCCAGGAGUUUUCUCCUGUAAACUCAACAGCUCGCAGUCAAG”, the binding signal (log2 fold change) was determined as 0.183. In the case of “GGUCACGUCUCAAUCAACUCAUCCCCAGGAGUUUCCUCCUGCUUUCUCAACAGCUCGCAGUCAAG”, the binding signal (log2 fold change) came out at 0.111. For “GGUCACGUCUCAAUCAACUCAUUUUCAGGAGUUUGCUCCUGCUUUUUCAACAGCUCGCAGUCAAG”, the binding signal (log2 fold change) stood at 0.215.

With “GGUCACGUCUCAAUCAACUCUCUAGAGGGGGGGAAAACCCCUUUACCCUCACCUUCAACAGCUCGCAGUCAAG”, the binding signal (log2 fold change) is 0.209. Regarding “GGUCACGUCUCAAUCAACUCCCACGAGGGGGGGAAAACCCCUUUACCCUCUUAUUCAACAGCUCGCAGUCAAG”, the binding signal (log2 fold change) is -0.173. The value for “GGUCACGUCUCAAUCAACUCAAUAGAGGGGGGGAAAACCCCUUUACCCUCAACAUCAACAGCUCGCAGUCAAG” was -0.117. For the sequence “GGUCACGUCUCAAUCAACUCGUCUUCAGGAGUUUUCUCCUGCAUUCUCAACAGCUCGCAGUCAAG”, the binding signal (log2 fold change) came out at 0.121.

Regarding “GGUCACGUCUCAAUCAACUCAUAGGAGGGGGGGAAAACCCCUUUACCCUCAAACUCAACAGCUCGCAGUCAAG”, the binding signal (log2 fold change) is -0.215.

In the case of “GGUCACGUCUCAAUCAACUCAUCCUCAGGAGUUUCCUCCUGCAUUCUCAACAGCUCGCAGUCAAG”, the binding signal (log2 fold change) was -0.0411.

For “GGUCACGUCUCAAUCAACUCUUUCUCCAGGGAAACCCCUGGUUUUUUCAACAGCUCGCAGUCAAG”, the binding signal (log2 fold change) was -0.247.

“GGUCACGUCUCAAUCAACUCCUCUGAGGGGGGGAAAACCCCUUUACCCUCCAAAUCAACAGCUCGCAGUCAAG”: the binding signal (log2 fold change) is 0.246.

Turning to “GGUCACGUCUCAAUCAACUCUUCCUCCAGGGAAAUCCCUGGCAUAUUCAACAGCUCGCAGUCAAG”, the binding signal (log2 fold change) came to 0.137. As for “GGUCACGUCUCAAUCAACUCAUUCUCCAGGGAAAGCCCUGGUUAUCUCAACAGCUCGCAGUCAAG”, the binding signal (log2 fold change) was -0.0583. For the sequence “GGUCACGUCUCAAUCAACUCCCAAGAGGGGGGGAAAACCCCUUUGCCCUCCGUAUCAACAGCUCGCAGUCAAG”, the binding signal (log2 fold change) is -0.0928.
